± gives the standard deviation of the averaged measurements. The list shows a part of the results.

The subject of the assay is PfAP2-G AP2 domain (GST-tagged). Briefly: gcPBM binding intensity (ln(normalized median fluorescence intensity)); higher = stronger DNA binding. The gist of the method:
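Plasmodium falciparum DNA-binding domains carrying a GST tag were expressed in E. coli and applied for 1 h, at about 25 μg on average, to an Agilent 4 × 180k array. The array held primer-extended double-stranded 36-bp intergenic genomic probes together with negative controls, and binding took place in 1× PBS with 1% milk, 0.2 mg/ml BSA, 0.5% salmon testes DNA and 0.03% Triton X-100. An Alexa488 anti-GST antibody detected bound protein, and the array was scanned at 488 nm. Binding intensity is taken as the highest Masliner-normalised natural-log median intensity across replicate spots of either probe orientation.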
Consider “TAATAAAAATAAAATTGTACTAATAACATTTCATTA [XGTACX_site3703]”, for which the “gcPBM binding intensity (ln)” value was 10.9 ± 0.64. Turning to “CATATTTGATACAAGTGTACTTTATTTAAAAATTCT [XGTACX_site8408]”, the “gcPBM binding intensity (ln)” value amounted to 11.4 ± 0.93. For “AACTTTGAGACATAGTGTACTTACACAATCTTAATA [XGTACX_site3712]” the value was 11.4 ± 0.86. For “ACATTTTTTTTTTTTTTTCTTTTTCTTTTTCTTTTT [CACACA_negctrl_site1295]” the value was 9.65 ± 0.29; for “TAATATAATATATGCACACAAATATGTATTTATGTG [CACACA_site5210]”, 10.3 ± 0.19; for “TCGTATCTATTGAGGGTGCCTCTATAATTGATACAA [GTGCAC_site9636]”, 10 ± 0.16.

For the sequence “AACCTAAGCATTCTTCAAATTATATATGTAAAATGA [CACACA_negctrl_site261]”, the “gcPBM binding intensity (ln)” value turned out to be 9.65 ± 0.11. For the sequence “CTTACACCCATATATACACACATGTATATTTTATAT [CACACA_site4462]”, the “gcPBM binding intensity (ln)” value came out at 10.195 ± 0.007. Under “TACTCCTCAATATTATGTACATATAATAGTTATAAA [XGTACX_site8551]” stands 11.2 ± 0.79; under “ATATATAAACACTCTTGTACATAATAATGTATATAT [XGTACX_site2451]”, 10.8 ± 0.45; under “GAAAAAATAAAATAAAGTACATAACTATAATAAAAA [XGTACX_site4807]”, 11.4 ± 0.9. Under “ATATATATATGTATGTGTCCACAAGGAGATATATAT [XGTACX_site783]” stands 11.2 ± 0.6. For “AAAATATTTTAATGTTGTACATTAATATATTATATA [XGTACX_site2513]” the value was 11 ± 0.83; for “AGTATAAAATAAATGTGTACACAAGAAAATATGTTA [XGTACX_site8381]”, 11.8 ± 0.93; for “AAAATCACAAGACACACACACACAAAAAAAAAAAAA [CACACA_site6791]”, 10.1 ± 0.35. In the case of “ATTATAAAGACATATACACACATACGTACATACATA [CACACA_site5893]”, the “gcPBM binding intensity (ln)” value is 11.5 ± 0.79. As for “AGTAAATAATAGATCGCATGTAATAACTAGTAGGAA [TGCATGCA_site948]”, the “gcPBM binding intensity (ln)” value stood at 10.11 ± 0.035. Turning to “TACATAAATATATGTGTGCACAATTTCGTATATTTA [GTGCAC_site9859]”, the “gcPBM binding intensity (ln)” value amounted to 10.4 ± 0.28.

For “TGTACATTCGGAGTAAAAAAAAATTTATACAATTAC [CACACA_negctrl_site1451]”, the “gcPBM binding intensity (ln)” value is 10.2 ± 0.16. In the case of “AACAGATAAAAGGGTACACACATATATACCTGTACA [CACACA_site4285]”, the “gcPBM binding intensity (ln)” value stood at 11.7 ± 0.99. For “TGTATTAAATTTTGAACACACAAAATAAAACATATA [CACACA_site1672]” the value was 10.1 ± 0.13. On to “TTATTTATATATTCATGTACATAACATTTCATTCGA [XGTACX_site4388]”, for which the “gcPBM binding intensity (ln)” value came to 11.1 ± 0.42. As to “TTTTAAGAATAAAATTGTACACATACATGTGTTCGC [XGTACX_site438]”, the “gcPBM binding intensity (ln)” value stood at 11.2 ± 0.59.

As for “ATATAAATTTTTTAGAGTACTAAAATAAAATAATAT [XGTACX_site2118]”, the “gcPBM binding intensity (ln)” value amounted to 11.2 ± 0.73.

Take “TGTGTATATATATAATGTACATAAAGATTTATATAT [XGTACX_site5835]”: the “gcPBM binding intensity (ln)” value was 11.1 ± 0.57. Consider TTCTCATTCAAATTAGTGCATTTTTGTTATTACATT, for which the “gcPBM binding intensity (ln)” value came out at 10.1 ± 0.16. As for “AAACAGAAGACATATACACACATACAAAAAAGTGCA [CACACA_site4699]”, the “gcPBM binding intensity (ln)” value amounted to 10.2 ± 0.26. For “TATTTACTTATATGCACACATAAATGTGAATTATGG [CACACA_site3777]” the value was 10.2 ± 0.24; for “TAAATAATTAAAATATGTACTGAAATGTAATTATTT [XGTACX_site5894]”, 11 ± 0.76; for “TGTATCATAAAAATAACACACGTATTTTTTTTTATT [CACACA_site1050]”, 10.08 ± 0.071. “TAAAAAATGAAAAAGCGTACATGTTTTCTTATATTA [XGTACX_site1722]”: the “gcPBM binding intensity (ln)” value was 11.4 ± 0.71. For “TTTTCTAAAATGAATTGTACTTGATTATTTAAAAAA [XGTACX_site6097]” the value was 11 ± 0.68; for “ATACTAAAAAGTATCTGTACTTATTTTAAAAATAAA [XGTACX_site4116]”, 11.5 ± 1; for “CAATATATTTGATTTACACACTTACAATGTATATAA [CACACA_site2994]”, 10.5 ± 0.35.

As for “TTATTTATTTATAATAGTACAATTTAATGATCTTCT [XGTACX_site4831]”, the “gcPBM binding intensity (ln)” value turned out to be 10.8 ± 0.71. For “TGTTTTATACTAAATGAACACACACCCATATATATA [CACACA_site7912]” the value was 10.3 ± 0.26; for “AATAATATATATATATATATAATAAAATATAAATAG [CACACA_negctrl_site1515]”, 9.615 ± 0.035. For “CCAACATGCCCACGCACACACAAAAAAAGCATGCAT [CACACA_site4217]” the value was 10.4 ± 0.28; for “ATAAATACAGATAACACACACATATATATATATATA [CACACA_site5431]”, 10.1 ± 0.23. For “ATATGAAATAATAATAGTACATAAAATAATTTTACT [XGTACX_site6964]” the value was 11.2 ± 0.91; for “ATAGAAATATATATATGTACATATAGATAAATCTAT [XGTACX_site7833]”, 11.1 ± 0.58. For the sequence “AAAAATAACGTAAATTGTACATGTAAAATTTTCTAT [XGTACX_site7158]”, the “gcPBM binding intensity (ln)” value is 11.1 ± 0.52. Consider “TATATATGTATGTATTGTACAATTAAAAATATGTAT [XGTACX_site3990]”, for which the “gcPBM binding intensity (ln)” value was 10.8 ± 0.43. Under “ATTATGTATATAAATTAACACACATATGTGGTTAAT [CACACA_site9028]” stands 9.9 ± 0.14.

Values taken from the supplement of paper PMC11417369.
